# The list shows a part of the results.
# B1: LCA (Lens culinaris), P02870 (protein)
# chain: MASLQTQMISFYLIFLSILLTTIFFFKVNSTETTSFSITKFSPDQKNLIFQGDGYTTKGKLTLTKAVKSTVGRALYSTPIHIWDRDTGNVANFVTSFTFVIDAPSSYNVADEFTFFIAPVDTKPQTGGGYLGVFNSKEYDKTSQTVAVEFDTFYNAAWDPSNKERHIGIDVNSIKSVNTKSWNLQNGERANVVIAFNAATNVLTVTLTYPNSLEEENVTSYTLNEVVPLKDVVPEWVRIGFSATTGAEFAAHEVHSWSFHSELGGTSSSKQAADA
# Legend:
# Test in all cases: glycan array binding signal (z-score within array); higher = stronger binding
# Conditions in all cases: glycan notation: IUPAC condensed, linker removed
# [1] = target: Fuc(a1-2)Gal
# Summary of the method: (§1)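 Glycan array binding is given as a within-array Z-score, which can be read as non-binding when negative. The arrays, 3228 of them, came from the Consortium for Functional Glycomics database and were retained only where the protein sequence was available. Z-scores were averaged across arrays of the same protein sequence at different concentrations or buffers and across linkers.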
# [2] = target: Fuc(a1-2)Gal(b1-3)GalNAc
# Summary of the method: as §1
# [3] = target: Fuc(a1-2)Gal(b1-3)GalNAc(a1-3)[Fuc(a1-2)]Gal(b1-4)Glc
# Summary of the method: as §1
# [4] = target: Fuc(a1-2)Gal(b1-3)GalNAc(a1-3)[Fuc(a1-2)]Gal(b1-4)GlcNAc
# Summary of the method: as §1
# [5] = target: Fuc(a1-2)Gal(b1-3)GalNAc(b1-3)Gal
# Summary of the method: as §1
# [6] = target: Fuc(a1-2)Gal(b1-3)GalNAc(b1-3)Gal(a1-4)Gal(b1-4)Glc
# Summary of the method: as §1
# [7] = target: Fuc(a1-2)Gal(b1-3)GalNAc(b1-4)[Neu5Ac(a2-3)]Gal(b1-4)Glc
# Summary of the method: as §1
# [8] = target: Fuc(a1-2)Gal(b1-3)GlcNAc
# Summary of the method: as §1
# [9] = target: Fuc(a1-2)Gal(b1-3)GlcNAc(b1-2)Man(a1-3)[Fuc(a1-2)Gal(b1-3)GlcNAc(b1-2)Man(a1-6)]Man(b1-4)GlcNAc(b1-4)GlcNAc
# Summary of the method: as §1
# [10] = target: Fuc(a1-2)Gal(b1-3)GlcNAc(b1-2)Man(a1-3)[Fuc(a1-2)Gal(b1-3)GlcNAc(b1-2)Man(a1-6)]Man(b1-4)GlcNAc(b1-4)[Fuc(a1-6)]GlcNAc
# Summary of the method: as §1
# [11] = target: Fuc(a1-2)Gal(b1-3)GlcNAc(b1-3)Gal(b1-4)Glc
# Summary of the method: as §1
# [12] = target: Fuc(a1-2)Gal(b1-3)GlcNAc(b1-3)GalNAc
# Summary of the method: as §1
# [13] = target: Fuc(a1-2)Gal(b1-3)GlcNAc(b1-3)[Fuc(a1-2)Gal(b1-3)GlcNAc(b1-6)]GalNAc
# Summary of the method: as §1
# [14] = target: Fuc(a1-2)Gal(b1-3)GlcNAc(b1-3)[Gal(b1-4)GlcNAc(b1-6)]Gal(b1-4)Glc
# Summary of the method: as §1
# [15] = target: Fuc(a1-2)Gal(b1-3)GlcNAc(b1-3)[Neu5Ac(a2-6)Gal(b1-4)GlcNAc(b1-6)]Gal(b1-4)Glc
# Summary of the method: as §1
# [16] = target: Fuc(a1-2)Gal(b1-3)GlcNAc6S
# Summary of the method: as §1
# [17] = target: Fuc(a1-2)Gal(b1-3)[Fuc(a1-4)]GlcNAc
# Summary of the method: as §1
# [18] = target: Fuc(a1-2)Gal(b1-3)[Fuc(a1-4)]GlcNAc(b1-2)Man(a1-3)[Fuc(a1-2)Gal(b1-3)[Fuc(a1-4)]GlcNAc(b1-2)Man(a1-3)]Man(b1-4)GlcNAc(b1-4)GlcNAc
# Summary of the method: as §1
# [19] = target: Fuc(a1-2)Gal(b1-3)[Fuc(a1-4)]GlcNAc(b1-2)Man(a1-3)[Fuc(a1-2)Gal(b1-3)[Fuc(a1-4)]GlcNAc(b1-2)Man(a1-6)]Man(b1-4)GlcNAc(b1-4)[Fuc(a1-6)]GlcNAc(b1-4)[Fuc(a1-6)]GlcNAc
# Summary of the method: as §1
# [20] = target: Fuc(a1-2)Gal(b1-3)[Fuc(a1-4)]GlcNAc(b1-3)[Fuc(a1-3)[Gal(b1-4)]GlcNAc(b1-6)]Gal(b1-4)Glc
# Summary of the method: as §1
# [21] = target: Fuc(a1-2)Gal(b1-3)[Fuc(a1-4)]GlcNAc(b1-3)[Gal(b1-4)GlcNAc(b1-6)]Gal(b1-4)Glc
# Summary of the method: as §1
# [22] = target: Fuc(a1-2)Gal(b1-4)Fuc(a1-3)]GlcNAc(b1-2)Man(a1-3)[Fuc(a1-2)Gal(b1-4)[Fuc(a1-3)]GlcNAc(b1-2)Man(a1-6)]Man(b1-4)GlcNAc(b1-4)GlcNAc
# Summary of the method: as §1
# [23] = target: Fuc(a1-2)Gal(b1-4)Glc
# Summary of the method: as §1
# [24] = target: Fuc(a1-2)Gal(b1-4)Glc6S
# Summary of the method: as §1
# [25] = target: Fuc(a1-2)Gal(b1-4)GlcNAc
# Summary of the method: as §1
# [26] = target: Fuc(a1-2)Gal(b1-4)GlcNAc(b1-2)Man
# Summary of the method: as §1
# [27] = target: Fuc(a1-2)Gal(b1-4)GlcNAc(b1-2)Man(a1-3)[Fuc(a1-2)Gal(b1-4)GlcNAc(b1-2)Man(a1-6)]Man(b1-4)GlcNAc(b1-4)GlcNAc
# Summary of the method: as §1
# [28] = target: Fuc(a1-2)Gal(b1-4)GlcNAc(b1-2)Man(a1-3)[Fuc(a1-2)Gal(b1-4)GlcNAc(b1-2)Man(a1-6)]Man(b1-4)GlcNAc(b1-4)[Fuc(a1-6)]GlcNAc
# Summary of the method: as §1
# [29] = target: Fuc(a1-2)Gal(b1-4)GlcNAc(b1-2)[Fuc(a1-2)Gal(b1-4)GlcNAc(b1-4)]Man(a1-3)[Fuc(a1-2)Gal(b1-4)GlcNAc(b1-2)Man(a1-6)]Man(b1-4)GlcNAc(b1-4)GlcNAc
# Summary of the method: as §1
# [30] = target: Fuc(a1-2)Gal(b1-4)GlcNAc(b1-3)Gal(b1-4)GlcNAc
# Summary of the method: as §1
# [31] = target: Fuc(a1-2)Gal(b1-4)GlcNAc(b1-3)Gal(b1-4)GlcNAc(b1-2)Man(a1-3)[Fuc(a1-2)Gal(b1-4)GlcNAc(b1-3)Gal(b1-4)GlcNAc(b1-2)Man(a1-6)]Man(b1-4)GlcNAc(b1-4)GlcNAc
# Summary of the method: as §1
# [32] = target: Fuc(a1-2)Gal(b1-4)GlcNAc(b1-3)Gal(b1-4)GlcNAc(b1-3)Gal(b1-4)GlcNAc
# Summary of the method: as §1
# [33] = target: Fuc(a1-2)Gal(b1-4)GlcNAc(b1-3)GalNAc
# Summary of the method: as §1
# [34] = target: Fuc(a1-2)Gal(b1-4)GlcNAc(b1-3)[Fuc(a1-2)Gal(b1-4)GlcNAc(b1-6)]GalNAc
# Summary of the method: as §1
# [35] = target: Fuc(a1-2)Gal(b1-4)GlcNAc(b1-3)[Fuc(a1-3)[Gal(b1-4)]GlcNAc(b1-6)]Gal(b1-4)Glc
# Summary of the method: as §1
# [36] = target: Fuc(a1-2)Gal(b1-4)GlcNAc(b1-6)GalNAc
# Summary of the method: as §1
# [37] = target: Fuc(a1-2)Gal(b1-4)GlcNAc6S
# Summary of the method: as §1
binder,measurement,setting,value
B1,glycan array binding signal (z-score),[1],-0.192
same,glycan array binding signal (z-score),[2],-0.234
same,glycan array binding signal (z-score),[3],-0.201
same,glycan array binding signal (z-score),[4],-0.23
same,glycan array binding signal (z-score),[5],-0.218
same,glycan array binding signal (z-score),[6],-0.226
same,glycan array binding signal (z-score),[7],-0.216
same,glycan array binding signal (z-score),[8],-0.225
same,glycan array binding signal (z-score),[9],-0.219
same,glycan array binding signal (z-score),[10],0.047
same,glycan array binding signal (z-score),[11],-0.224
same,glycan array binding signal (z-score),[12],-0.2
same,glycan array binding signal (z-score),[13],-0.222
same,glycan array binding signal (z-score),[14],-0.169
same,glycan array binding signal (z-score),[15],-0.212
same,glycan array binding signal (z-score),[16],-0.231
same,glycan array binding signal (z-score),[17],-0.225
same,glycan array binding signal (z-score),[18],-0.174
same,glycan array binding signal (z-score),[19],0.331
same,glycan array binding signal (z-score),[20],-0.23
same,glycan array binding signal (z-score),[21],-0.214
same,glycan array binding signal (z-score),[22],-0.076
same,glycan array binding signal (z-score),[23],-0.205
same,glycan array binding signal (z-score),[24],-0.197
same,glycan array binding signal (z-score),[25],-0.217
same,glycan array binding signal (z-score),[26],-0.177
same,glycan array binding signal (z-score),[27],-0.225
same,glycan array binding signal (z-score),[28],0.737
same,glycan array binding signal (z-score),[29],-0.231
same,glycan array binding signal (z-score),[30],-0.239
same,glycan array binding signal (z-score),[31],-0.154
same,glycan array binding signal (z-score),[32],-0.167
same,glycan array binding signal (z-score),[33],-0.182
same,glycan array binding signal (z-score),[34],-0.213
same,glycan array binding signal (z-score),[35],-0.193
same,glycan array binding signal (z-score),[36],-0.218
same,glycan array binding signal (z-score),[37],-0.226
